In all, about 130,000 compounds went through this assay and about 1,900 (1.5%) were called active. The shares of active, inactive and inconclusive entries below differ from those in the screen. The call rests on the fitted dose curve; in most records, active means well fitted cell-killing curve with a large enough effect; inconclusive means small, poorly fitted or top-dose-only effect; inactive means no such curve, though single readings can be large or run the other way. Where the call is inconclusive, the potency comes from a doubtful curve fit.
Experiment: qHTS Screen for Compounds that Selectively Target Cancer Cells with p53 Mutations: Cytotoxicity of p53ts Cells at the Nonpermissive Temperature; further: nearly all actives have a fitted effect of over 55% in size
Settings: H1299-p53A138V viability at 39C, ATP luminescence, 24 h; activity change, negative = cell killing: at 46.1 µM (top of the series)
On the % scale 0 is the no-effect control and ±100 the full control effect; potency means the concentration at half of the fitted maximal effect; tags describe the fitted curve by direction and shape.

| SMILES | Potency | activity change, negative = cell killing |
| --- | --- | --- |
| CCc1ccccc1NC(=O)C(CC)Sc1ncnc2c1sc1ccccc12 (stereo not drawn) | inconclusive: 20 µM [cytotoxic, partial curve] | – |
| O=C(Nc1nnc(SCC(=O)N2CCCc3ccccc32)s1)c1ccc2ccccc2c1 | active: 3.16 µM | – |
| O=C(Nc1ccc(Br)cc1)C1CCCN(S(=O)(=O)c2ccc(Br)s2)C1 (stereo not drawn) | inconclusive: 15.8 µM [cytotoxic, single point] | – |
| Fc1cccc2sc(Nc3nnc(-c4ccco4)o3)nc12 | inconclusive: 10 µM [cytotoxic, partial curve] | – |
| Cc1nnc(NC(=O)c2sc3ccccc3c2Cl)s1 | active: 0.631 µM | – |
| Cc1cc(C)c2c(CC(=O)Nc3ccc(S(=O)(=O)N4CCCC(C)C4)cc3)coc2c1 (stereo not drawn) | inactive | – |
| Cc1cc(Br)ccc1NC(=O)C(Cc1ccccc1)NS(=O)(=O)c1ccc(Br)s1 (stereo not drawn) | inconclusive: 15.8 µM [cytotoxic, single point] | – |
| C=C(C)CSc1cc(C)c(C#N)c2nc3ccccc3n12 | inconclusive: 0.0022 µM [cytotoxic, full curve, poor fit] | – |
| COc1ccc(OCc2nc3ccccc3n2C(C)c2ccccc2)cc1 (stereo not drawn) | inconclusive: 12.6 µM [cytotoxic, single point] | – |
| CCOc1ccccc1NC(=O)CSc1nc2c(c(=O)[nH]1)CCC2 | inactive | – |
| C#CCn1c(COc2ccccc2C)nc2ccccc21 | inconclusive: 7.94 µM [cytotoxic, partial curve] | – |
| Cc1cc(N(CCO)Cc2ccccc2)n2nc(-c3ccc(C(C)(C)C)cc3)nc2n1 | inconclusive: 1 µM [cytotoxic, partial curve, poor fit] | – |
| Cn1c(=O)c2cc(C(=O)NC3CCCCCC3)sc2c2ccccc21 | active: 7.94 µM | – |
| Cc1ccc2oc(-c3ccccc3)c(O)c(=O)c2c1 | inactive | – |
| Cc1nc(C)c(CCNS(=O)(=O)c2ccc(F)cc2)s1 | inconclusive: 10 µM [cytotoxic, partial curve, poor fit] | – |
| O=S(=O)(Nc1cccc(-c2cn3ccsc3n2)c1)c1ccc(F)cc1 | inconclusive: 20 µM [cytotoxic, single point] | – |
| Cc1ccc(Nc2nnc(SCC(=O)Nc3cccc(S(=O)(=O)N4CCCCC4)c3)s2)cc1 | active: 11.2 µM | – |
| Cc1oc2c(cc(NS(=O)(=O)c3ccc(Cl)cc3)c3ccccc32)c1C(=O)OCc1ccccc1 | inconclusive: 15.8 µM [cytotoxic, single point] | – |
| Cc1[nH]n2c(=O)c3c(nc2c1-c1ccc(Cl)cc1)CCC3 | inactive | – |
| Cc1ccc(-n2c(=O)c3ccc(C(=O)NCc4ccccc4Cl)cc3n(CC(=O)Nc3ccc(C)cc3C)c2=O)cc1 | inconclusive: 6.31 µM [cytotoxic, partial curve] | – |
| O=C(CSc1ncc2c(n1)-c1ccccc1N(Cc1ccc(F)cc1)S2(=O)=O)NCCc1ccccc1 | inactive | – |
| Cc1ccc2oc(=O)n(CCOc3ccccc3Cl)c2c1 | inactive | – |
| CCCCOc1ccc(C2C(=O)N(C3CCCCC3)CC(=O)N2CCCC)cc1 (stereo not drawn) | inconclusive: 6.31 µM [cytotoxic, partial curve] | – |
| Cc1ccc(N[C@H](c2ccccc2)c2ccc3cccnc3c2O)cc1 | inconclusive: 2.51 µM [cytotoxic, partial curve] | – |
| Cc1ccc(NC2=NC(C(=O)Nc3ccc(C)c(C)c3)CC(=O)N2)cc1 (stereo not drawn) | inconclusive: 12.6 µM [cytotoxic, single point] | – |

| SMILES | Potency | activity change, negative = cell killing |
| --- | --- | --- |
| Cc1cccc(NC(=O)CSc2nc(-c3cccs3)cc(C(F)(F)F)c2C#N)c1 | inconclusive: 10 µM [cytotoxic, partial curve] | – |
| CCc1cccc(C)c1Nc1c(-c2ccc(N(C)C)cc2)nc2ncccn12 | inconclusive: 25.1 µM [cytotoxic, single point] | – |
| c1ccc(-c2ccc(N3CC[C@@]4(CCCNC4)C3)cc2)cc1 | inconclusive: 15.8 µM [cytotoxic, single point] | – |
| Cc1ccc(C(=O)Nc2nc3ccccc3c(=O)s2)cc1 | active: 15.8 µM | – |
| Cc1[nH]n2c(=O)cc(C(C)C)nc2c1-c1ccccc1 | active: 12.6 µM | – |
| CC(=O)NC(Cc1c[nH]c2ccccc12)C(=O)OCC(=O)Nc1cc(C)on1 (stereo not drawn) | inactive | – |
| CSc1ccccc1NC(=O)CCS(=O)(=O)c1nc(-c2cccs2)cc(C(F)(F)F)n1 | inconclusive: 25.1 µM [cytotoxic, single point] | – |
| Cc1ccc(-c2cn3c4c(=O)n(C)c(=O)n(C)c4nc3n2-c2cccc(Cl)c2)cc1 | inactive | – |
| CC1CN(c2nc3ccccn3c(=O)c2/C=C(\C#N)S(=O)(=O)c2ccccc2)CC(C)O1 (stereo not drawn) | inactive | – |
| CCN(C(=O)Cn1nc(Cc2cccnc2)c2ccccc2c1=O)c1cc(C)ccc1C | inactive | – |
| O=C1C(c2ccc(C(F)(F)F)cc2)=C(Nc2ccc(Cl)cc2)c2ccccc21 | inconclusive: 31.6 µM [cytotoxic, single point] | – |
| CCOC(=O)C1=C(c2ccc(OC)cc2)C(=O)c2ccccc2C1=O | active: 7.08 µM | – |
| COc1ccccc1CNc1ncnc2nc[nH]c12 | inconclusive: 15.8 µM [cytotoxic, single point] | – |
| CCc1ccc(S(=O)(=O)c2nnn3c2nc(Nc2cccc(C)c2C)c2sccc23)cc1 | inconclusive: 7.94 µM [cytotoxic, partial curve] | – |
| COc1cc(-c2nnc(SCC(=O)N3CCCc4ccccc43)o2)cc(OC)c1OC | inactive | – |
| O=C(NCc1ccccc1Br)c1ccc(-n2cnc3cccnc32)cc1 | inactive | – |
| C[C@H]1/C=C\CC(=O)OC[C@H](C)C(=O)N2CCC[C@@H]2C(=O)OC1 | – | inactive: -0.418% [at 9.22 µM] |
| CCOC(=O)c1c(-c2ccccc2)csc1NC(=O)c1cc(-c2cccc(OC)c2)on1 | inactive | – |
| CCCc1oc2ccc(NS(=O)(=O)c3ccc(OC)cc3)cc2c1C(=O)OCC | inconclusive: 20 µM [cytotoxic, single point] | – |
| COc1ccc(-c2ccc(-c3nnc(-c4cc(OC)ccc4OC)o3)cc2)cc1 | inactive | – |
| CCOc1ccc2nc(NC(=O)CSC3=NCCS3)sc2c1 | inconclusive: 12.6 µM [cytotoxic, partial curve] | – |
| Cc1ccc(C2c3c(-c4cc(C)ccc4O)n[nH]c3C(=O)N2Cc2ccco2)cc1 (stereo not drawn) | active: 25.1 µM | – |
| Cc1cccc(Cn2ccn(Cc3ccc(Cl)cc3)c(=O)c2=O)c1 | active: 31.6 µM | – |
| O=C(NCCCCNC(=O)c1ccc(Cl)s1)c1ccc(Cl)s1 | inactive | – |
| CCN(CC)CC[n+]1ccc2c(C)c3[nH]c4ccccc4c3c(C)c2c1 | – | inactive: 0.151% [at 9.22 µM] |

| SMILES | Potency | activity change, negative = cell killing |
| --- | --- | --- |
| CCc1nnc(NC(=O)c2ccc(S(=O)(=O)N(CC)Cc3ccccc3)cc2)o1 | inconclusive: 10 µM [cytotoxic, partial curve] | – |
| O=C(c1ccc2c(c1)N(Cc1ccccc1)C(=O)c1ccccc1S2(=O)=O)N1CCCC1 | inactive | – |
| CC1CCc2noc(NC(=O)c3ccccc3[N+](=O)[O-])c2C1 (stereo not drawn) | inactive | – |
| Cc1cc(=O)n2[nH]c(-c3ccc(F)cc3)nc2n1 | active: 10 µM | – |
| O=C(CCC1CCCC1)N1CCc2c([nH]c3ccccc23)C1c1ccc(Cl)cc1 (stereo not drawn) | inactive | – |
| Cc1nn2cc(-c3ccc(Cl)cc3)nc2s1 | inconclusive: 15.8 µM [cytotoxic, single point] | – |
| CCOc1ccc(CCNc2cc(C)nc3ncnn23)cc1OCC | inactive | – |
| CCc1ccccc1N(C)C(=O)CCc1nc(-c2ccc(C)cc2)no1 | inactive | – |
| O=C(Nc1ccc(C(F)(F)F)cc1)c1cc(S(=O)(=O)NC2CCCCC2)ccc1F | active: 10 µM | – |
| Cc1cc(-c2ccc(C)c(S(=O)(=O)Nc3ccccc3C(F)(F)F)c2)on1 | inconclusive: 11.2 µM [cytotoxic, single point] | – |
| O=C(O)C(NS(=O)(=O)c1cccc2cccnc12)c1ccccc1 (stereo not drawn) | inactive | – |
| COc1ccc(NC(=O)CCCn2c(=O)c3cccn3c3ccccc32)c(OC)c1 | inconclusive: 20 µM [cytotoxic, single point] | – |
| CCOC(=O)c1c(C)[nH]c(CCC(=O)NCCCN2CCN(c3cc(Cl)ccc3C)CC2)c1C | inconclusive: 10 µM [cytotoxic, partial curve] | – |
| Cc1ccc(-n2ncc3c(NC4CCCCCC4)ncnc32)cc1 | inconclusive: 7.94 µM [cytotoxic, partial curve] | – |
| Cc1cc(C)c(-c2n[nH]c3c2C(c2ccccc2F)N(Cc2ccco2)C3=O)c(O)c1 (stereo not drawn) | active: 15.8 µM | – |
| CCN(CC)C(=O)c1ccc2c(c1)N(Cc1ccc(C(F)(F)F)cc1)C(=O)c1ccccc1S2 | inconclusive: 25.1 µM [cytotoxic, single point] | – |
| O=C(Nc1nc(-c2nc3ccccc3s2)cs1)C1CC1 | inconclusive: 15.8 µM [cytotoxic, partial curve] | – |
| Cc1ccc(C(=O)Nc2ccc3c(c2)nc2n3CCSC2)cc1 | inconclusive: 7.94 µM [cytotoxic, partial curve] | – |
| CC(C)CN(C)c1nc(N)c(C(=O)N=C(N)N)nc1Cl | inconclusive: 31.6 µM [cytotoxic, single point] | – |
| Cn1nnnc1SCCCNCc1ccccc1OCc1ccc(Cl)cc1 | inconclusive: 12.6 µM [cytotoxic, single point] | – |
| C=C(C)COc1ccc(-c2[nH]ncc2Oc2cccc(OC)c2)c(O)c1 | inconclusive: 25.1 µM [cytotoxic, single point] | – |
| COc1ccc(CN2CCc3c(c(=O)n4ncc(C(=O)N5CCN(c6ccccc6F)CC5)c4n3C)C2)cc1 | inconclusive: 2 µM [cytotoxic, full curve, poor fit] | – |
| CS(=O)(=O)N(Cc1ccccc1)c1ccc(C(=O)Nc2cccc(Cl)c2)cc1 | inactive | – |
